To fix the notation:
T1: RBFOX1 RRM RbFoxmut (Fox-RRM*) (Homo sapiens, UniProt Q9NWB1 109-208, R118D;E147R;N151S;E152T)
T1 sequence: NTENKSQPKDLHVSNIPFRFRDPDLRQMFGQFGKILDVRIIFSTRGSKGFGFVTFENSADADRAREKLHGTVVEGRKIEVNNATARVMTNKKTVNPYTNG

B1: AGUCCAU (DNA:RNA)
RNA: GGGAGACCGGAAUUCAGAUUGUCCAGUCCAUUUAAAUCCCGUCGUAGCCACCA
DNA 1: CAATCTGAATTCCGGTCTCCC
DNA 2: TGGTGGCTACGACGGGATT
B2: UUUCUAG (DNA:RNA)
RNA: B1 RNA with A25U, G26U, C29U, U31G
DNA 1: CAATCTGAATTCCGGTCTCCC
DNA 2: TGGTGGCTACGACGGGATT
B3: AUCAGAA (DNA:RNA)
RNA: B1 RNA with G26U, U27C, C28A, C29G, U31A
DNA 1: CAATCTGAATTCCGGTCTCCC
DNA 2: TGGTGGCTACGACGGGATT
B4: GGCUUGA (DNA:RNA)
RNA: B1 RNA with A25G, U27C, C28U, C29U, A30G, U31A
DNA 1: CAATCTGAATTCCGGTCTCCC
DNA 2: TGGTGGCTACGACGGGATT
B5: AAUAGCU (DNA:RNA)
RNA: B1 RNA with G26A, C28A, C29G, A30C
DNA 1: CAATCTGAATTCCGGTCTCCC
DNA 2: TGGTGGCTACGACGGGATT
B6: UUGAUAA (DNA:RNA)
RNA: B1 RNA with A25U, G26U, U27G, C28A, C29U, U31A
DNA 1: CAATCTGAATTCCGGTCTCCC
DNA 2: TGGTGGCTACGACGGGATT
B7: GAGAGUU (DNA:RNA)
RNA: B1 RNA with A25G, G26A, U27G, C28A, C29G, A30U
DNA 1: CAATCTGAATTCCGGTCTCCC
DNA 2: TGGTGGCTACGACGGGATT
B8: UUAGUAG (DNA:RNA)
RNA: B1 RNA with A25U, G26U, U27A, C28G, C29U, U31G
DNA 1: CAATCTGAATTCCGGTCTCCC
DNA 2: TGGTGGCTACGACGGGATT
B9: AAGCCCA (DNA:RNA)
RNA: B1 RNA with G26A, U27G, A30C, U31A
DNA 1: CAATCTGAATTCCGGTCTCCC
DNA 2: TGGTGGCTACGACGGGATT
B10: GCGGUGU (DNA:RNA)
RNA: B1 RNA with A25G, G26C, U27G, C28G, C29U, A30G
DNA 1: CAATCTGAATTCCGGTCTCCC
DNA 2: TGGTGGCTACGACGGGATT
B11: GUCGCUU (DNA:RNA)
RNA: B1 RNA with A25G, G26U, U27C, C28G, A30U
DNA 1: CAATCTGAATTCCGGTCTCCC
DNA 2: TGGTGGCTACGACGGGATT
B12: UGCGUUC (DNA:RNA)
RNA: B1 RNA with A25U, U27C, C28G, C29U, A30U, U31C
DNA 1: CAATCTGAATTCCGGTCTCCC
DNA 2: TGGTGGCTACGACGGGATT
B13: CUCCAAC (DNA:RNA)
RNA: B1 RNA with A25C, G26U, U27C, C29A, U31C
DNA 1: CAATCTGAATTCCGGTCTCCC
DNA 2: TGGTGGCTACGACGGGATT
B14: UCCCCAA (DNA:RNA)
RNA: B1 RNA with A25U, G26C, U27C, U31A
DNA 1: CAATCTGAATTCCGGTCTCCC
DNA 2: TGGTGGCTACGACGGGATT
B15: UGGCAUC (DNA:RNA)
RNA: B1 RNA with A25U, U27G, C29A, A30U, U31C
DNA 1: CAATCTGAATTCCGGTCTCCC
DNA 2: TGGTGGCTACGACGGGATT
B16: CCUUAUC (DNA:RNA)
RNA: B1 RNA with A25C, G26C, C28U, C29A, A30U, U31C
DNA 1: CAATCTGAATTCCGGTCTCCC
DNA 2: TGGTGGCTACGACGGGATT
B17: UACCACU (DNA:RNA)
RNA: B1 RNA with A25U, G26A, U27C, C29A, A30C
DNA 1: CAATCTGAATTCCGGTCTCCC
DNA 2: TGGTGGCTACGACGGGATT
B18: GCCCUUG (DNA:RNA)
RNA: B1 RNA with A25G, G26C, U27C, C29U, A30U, U31G
DNA 1: CAATCTGAATTCCGGTCTCCC
DNA 2: TGGTGGCTACGACGGGATT
B19: UAGGUAG (DNA:RNA)
RNA: B1 RNA with A25U, G26A, U27G, C28G, C29U, U31G
DNA 1: CAATCTGAATTCCGGTCTCCC
DNA 2: TGGTGGCTACGACGGGATT
B20: AGUAAAG (DNA:RNA)
RNA: B1 RNA with C28A, C29A, U31G
DNA 1: CAATCTGAATTCCGGTCTCCC
DNA 2: TGGTGGCTACGACGGGATT

Residue numbers refer to the chain shown, from its start. This is one part of the list.

This test addresses T1, RBFOX1 RRM RbFoxmut (Fox-RRM*). The experiment in a line: EMSA; HiTS-Eq, 1 nM pool, 10 min; buffer printed only for the single-RNA assays: 10 mM Tris pH 7.5, 150 mM NaCl, 3.4 mM EDTA, 0.001% NP-40, 30 C. To be noted: tags: His6 N-terminal (pET28a); label: 5' 32P. Put shortly:
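Relative association constants, normalised to the cognate motif, were derived by comparing read counts of each RNA species with those of the control reaction. The RNA sequenced was the free fraction, separated by 8% native PAGE after a 10 min equilibration in 50 µL of 1 nM 5′-radiolabelled RNA (7 randomized nucleotides) with increasing concentrations of purified wild-type or mutant RbFox RRM.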
For the molecule B1, the binding signal was 0.0943 KA relative to UGCAUGU.

On to B2, for which the binding signal is 0.143 KA relative to UGCAUGU. On to B3, for which the binding signal was 0.0972 KA relative to UGCAUGU. With B4, the binding signal was 0.244 KA relative to UGCAUGU. As to B5, the binding signal is 0.0964 KA relative to UGCAUGU. Consider B6, for which the binding signal was 0.0953 KA relative to UGCAUGU.

B7: the binding signal is 0.0961 KA relative to UGCAUGU. The figure for B8 is 0.147 KA relative to UGCAUGU. To B9 belongs 0.0733 KA relative to UGCAUGU; to B10, 0.154 KA relative to UGCAUGU; to B11, 0.0749 KA relative to UGCAUGU. B12: the binding signal is 0.095 KA relative to UGCAUGU.

B13: the binding signal was 0.0576 KA relative to UGCAUGU.

For B14, the binding signal was 0.0943 KA relative to UGCAUGU. On to B15, for which the binding signal is 0.411 KA relative to UGCAUGU.

B16: the binding signal is 0.0522 KA relative to UGCAUGU.

On to B17, for which the binding signal was 0.065 KA relative to UGCAUGU. The figure for B18 is 0.0914 KA relative to UGCAUGU; for B19 it is 0.124 KA relative to UGCAUGU; for B20 it is 0.107 KA relative to UGCAUGU.

The values above are taken from publication PMC9911399, “Two distinct binding modes provide the RNA-binding protein RbFox with extraordinary sequence specificity”.
